According to PMC4336329 (PLoS ONE, 2015):
The campaign covered roughly 310,000 compounds. About 2,200 (0.71%) showed an effect of 50% or more. Effects have a minus sign here. This is one part of the list.

molecular target: human ether-à-go-go-related gene (hERG) potassium channel (human, UniProt Q12809); assay: primary screen, population patch clamp on CHO cells stably expressing hERG
Sequence (Q12809 whole entry, looked up): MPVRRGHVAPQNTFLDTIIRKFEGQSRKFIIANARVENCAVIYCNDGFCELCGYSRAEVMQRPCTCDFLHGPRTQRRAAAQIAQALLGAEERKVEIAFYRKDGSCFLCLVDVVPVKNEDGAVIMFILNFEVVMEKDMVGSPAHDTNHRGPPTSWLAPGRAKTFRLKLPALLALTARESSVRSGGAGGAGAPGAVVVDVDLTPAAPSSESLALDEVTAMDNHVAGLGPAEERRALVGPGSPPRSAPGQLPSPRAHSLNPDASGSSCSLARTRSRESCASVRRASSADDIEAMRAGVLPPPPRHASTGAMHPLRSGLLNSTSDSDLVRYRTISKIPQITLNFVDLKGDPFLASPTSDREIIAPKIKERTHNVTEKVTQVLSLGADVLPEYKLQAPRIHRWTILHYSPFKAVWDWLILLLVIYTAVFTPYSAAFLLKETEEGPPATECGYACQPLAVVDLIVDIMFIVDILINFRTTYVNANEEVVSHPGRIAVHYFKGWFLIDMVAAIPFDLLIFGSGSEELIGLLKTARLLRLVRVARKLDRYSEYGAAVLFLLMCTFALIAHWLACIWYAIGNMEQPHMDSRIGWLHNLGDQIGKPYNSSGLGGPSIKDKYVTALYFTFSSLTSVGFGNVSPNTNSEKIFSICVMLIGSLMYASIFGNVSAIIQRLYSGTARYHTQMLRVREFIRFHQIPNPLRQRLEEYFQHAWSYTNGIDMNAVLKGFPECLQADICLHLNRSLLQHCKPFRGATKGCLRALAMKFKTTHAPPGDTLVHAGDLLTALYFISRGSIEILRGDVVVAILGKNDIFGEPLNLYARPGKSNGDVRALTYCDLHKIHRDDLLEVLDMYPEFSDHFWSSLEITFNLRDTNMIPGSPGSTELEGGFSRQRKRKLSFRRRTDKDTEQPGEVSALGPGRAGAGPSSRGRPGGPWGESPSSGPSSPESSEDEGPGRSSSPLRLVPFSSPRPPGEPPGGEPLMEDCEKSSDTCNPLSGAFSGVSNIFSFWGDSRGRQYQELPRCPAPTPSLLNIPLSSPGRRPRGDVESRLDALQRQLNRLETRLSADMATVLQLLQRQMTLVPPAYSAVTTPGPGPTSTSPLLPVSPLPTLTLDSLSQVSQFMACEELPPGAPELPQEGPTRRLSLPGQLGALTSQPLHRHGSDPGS

Row | Structure (SMILES) | hERG current change (%, negative = inhibition) at 1uM
1 | CCN(CC)CCN(Cc1cc2cc3c(cc2[nH]c1=O)OCCO3)C(=S)NC | 8.75%
2 | CCC(C(=O)N1CCN(S(=O)(=O)c2sc(C(=O)O)c(C)c2C(=O)O)CC1)c1ccccc1 (stereo not drawn) | 13.4%
3 | CC1CCCC(C)N1C(=O)c1cc2ncc(CCCl)cn2n1 (stereo not drawn) | 16.5%
4 | Cc1ccc(O)c(NC(=O)C2CC(c3c(F)cccc3Cl)=NO2)c1 (stereo not drawn) | 5.72%
5 | COc1ccc(CNC(=O)c2ccc(N3CCC4(CC3)CC(c3ccc(Cl)cc3)=NO4)c(N)c2)cc1 | 10.8%
6 | Cn1c(=O)n(C)c2cc([N+](=O)[O-])c(N3CCN(C(=O)c4cccc(Cl)c4)CC3)cc21 | 1.44%
7 | CCOCCOC(=O)C1=C(C)N(C)C(=O)NC1c1cc(Cl)c(O)c(OC)c1 (stereo not drawn) | 4.47%
8 | O=C(c1ccccc1F)N1CCN(c2ccccn2)CC1 | 7.38%
9 | Cc1cc[n+](CC(=O)c2cccc([N+](=O)[O-])c2)c2ccccc12.[Br-] | -6.95%
10 | O=C(CCn1cnnn1)Nc1cccc(F)c1 | 0.466%
11 | COC(=O)C1=C(C)NC(C)=C(C(=O)OC)C1C(=O)OCc1nnc(-c2ccccc2)o1 | 9.25%
12 | CCc1nnc(NS(=O)(=O)c2ccc(NC(=S)NC(=O)c3ccc(Br)cc3)cc2)s1 | 9.82%
13 | CCOC(=O)C1CCN(C(=O)c2cc3c(C)cc(C)cc3[nH]2)CC1 | 12%
14 | O=C(CN1CCN(c2ccccn2)CC1)NC1CCCC1 | 11.8%
15 | COc1ccccc1N(CC(O)CN1C(C)CCCC1C)S(=O)(=O)c1ccccc1 (stereo not drawn) | 13.7%
16 | CC1=C(C(=O)N2CCOCC2)C(c2c(F)cccc2F)NC(=O)N1 (stereo not drawn) | -0.811%
17 | COc1cccc(OCC(=O)Nc2ccccc2NC(C)=O)c1 | 12.2%
18 | Cc1ccc(OCC(=O)NCCO)cc1C | 12.3%
19 | COc1ccc(NC(=O)c2c(C)nn(Cc3ccccc3Cl)c2Cl)cc1Cl | 8.84%

Row | Structure (SMILES) | hERG current change (%, negative = inhibition) at 1uM
20 | O=C(NC1(C(F)(F)F)C(=O)Nc2c1c(=O)[nH]c(=O)n2Cc1ccco1)C1CCCCC1 (stereo not drawn) | 20.9%
21 | O=C(Nc1ccc(F)cc1)Nc1nnc(COc2ccccc2F)s1 | 7.91%
22 | CSC1=NSC2=NC(=O)/C(=C\c3coc4ccccc4c3=O)C(=N)N12 | 5.07%
23 | CN1CCN(C(=O)/C(=C/c2cccnc2)NC(=O)c2cccc(Br)c2)CC1 | 8.02%
24 | COc1cc(OC)cc(C(=O)OCn2nnc3ccccc3c2=O)c1 | 11.4%
25 | Cc1ccc(-n2c(=S)sc3c(=O)n(-c4ccccc4F)c(SCC(=O)O)nc32)cc1C | 12.2%
26 | CN(C)C(=O)N1CCC(C(=O)NCc2ccc3c(c2)OCO3)CC1 | 4.52%
27 | COn1c2c(c3c4no[n+]([O-])c4ccc31)CCCC2 | 18.4%
28 | Br.Cc1nc2ncccn2c1-c1csc(Nc2ccc(S(N)(=O)=O)cc2)n1 | 6.21%
29 | C=CCn1c(SCC(=O)Nc2c(C)n(C)n(-c3ccccc3)c2=O)nc2ccccc2c1=O | 2.73%
30 | O=c1[nH]c2cc3c(cc2cc1CN(Cc1cccnc1)Cc1nnnn1Cc1ccco1)OCCO3 | 9.97%
31 | CCOP(=S)(OCC)c1ccc(N(C)C)cc1 | 0.0046%
32 | Cc1ccc(S(=O)(=O)NCC(=O)NCC(=O)N2CCN(c3ncccn3)CC2)cc1C | -2.6%
33 | COc1ccc(/C(C)=N/Nc2ccc(F)cc2F)c(O)c1 | 1.47%
34 | COc1ccccc1N(C)S(=O)(=O)c1ccc(C(=O)OCC(=O)NCc2ccco2)cc1 | 10.6%
35 | CCN(CC)c1ccc(N=Cc2c(C)[nH]c3ccccc23)cc1 | 6.92%
36 | CCc1nnc(NC(=O)CN2CCOCC2)s1 | 17.6%
37 | COc1cccc(/C=C2/C(=O)NN(c3ccccc3)C2=O)c1 | 17.2%
38 | O=C1CC(=C(c2ccccc2)c2ccccc2)C(=O)N1CCCN1CCN(c2cccc(Cl)c2)CC1 | 12.2%

Row | Structure (SMILES) | hERG current change (%, negative = inhibition) at 1uM
39 | CCOC(=O)N1CCN(C(=O)CSc2nc3c([nH]c4ccccc43)c(=O)n2CCOC)CC1 | -10.6%
40 | Cc1cc(C(=O)N/N=C/c2cccnc2)c2ccccc2n1 | 10.9%
41 | Cc1ccc(NCc2nnc(SCc3ccc(C#N)cc3)n2Cc2ccco2)c(C)c1 | -54.9%
42 | Cn1cccc1C(C#N)c1cccc(F)c1C#N (stereo not drawn) | 6.75%
43 | CC(C)n1c(-c2cccs2)nc2ccccc21 | 3.19%
44 | Cn1nccc1C(=O)Nc1cccc(C(F)(F)F)c1 | 13.5%
45 | O=C(O)CP(=O)(O)O | 8.55%
46 | CSc1ccccc1C(=O)C1CCCN(C(=O)c2cncs2)C1 (stereo not drawn) | 7.27%
47 | O=C(NCCc1c[nH]c2ccccc12)c1cnc2sccn2c1=O | 6.71%
48 | COc1ccccc1CCNC(=O)CN1C(=O)c2ccccc2S1(=O)=O | 9.09%
49 | COc1ccccc1CNC(=O)CCC(=O)n1ncc2cc(C)ccc21 | 12.3%
50 | c1ccc(Cn2c(CSc3nnnn3-c3ccccc3)nc3ccccc32)cc1 | 10.1%
51 | Cc1cccc(Nc2nnc(C)c(=O)n2N)c1 | -8.9%
52 | O=C(NCc1ccccn1)c1cc2c(ccc3ccccc32)oc1=O | 8.77%
53 | CC(C)CNC(=S)NC(=O)c1ccc([N+](=O)[O-])cc1 | 5.61%
54 | O=C(Cc1c(C(=O)O)[nH]c2ccccc12)NC1CCCC1 | 15.3%
55 | CCCC(=O)N1N=C(c2ccccc2)CC1c1cn(C)c2ccccc12 (stereo not drawn) | 4.39%
56 | O=C(CCN1C(=O)/C(=C/c2ccccc2F)SC1=S)NCCCN1CCOCC1 | 2.83%
57 | Cc1cc(C)c(CN2CCN(Cc3ccc(C)o3)C(CCO)C2)c(-n2cccn2)c1 (stereo not drawn) | -70.9%
